Source: a collection of fitness landscapes (doi:10.1016/j.celrep.2020.107928)
The full ranking holds about 81,000 sequences; the median of “one-hybrid fitness for binding NBS DNA” is about -0.1, and the highest 2% start at about 0.36. The list shows a part of the results.

B1: Caulobacter ParB omega fusion; a variant is named by its letters at X, in order, B8GW30 (parent)
chain: MESVVVGEPGMSEGRRGLGRGLSALLGEVDAAPAQAPGEQLGGSREAPIEILQRNPDQPRRTFREEDLEDLSNSIREKGVLQPILVRPSPDTAGEYQIVAGERAWRAAQRAGLKTVPIMVRELDDLAVLEIGIIENVQRADLNVLEEALSYKVLMEKFERTQENIAQTIGKSXSHVANXMRLLXLPDEVQSYLVSGELTAXHARAIAAAADPVALAKQIIEGGLSVRETEALARKAPNLSAGKSKGGRPPRVKDTDTQALESDLSSVLGLDVSIDHRGSTGTLTITYATLEQLDDLCNRLTRGI

Variants of: B1
Test: one-hybrid fitness for binding NBS DNA (the Noc-binding site; scaled: cognate 1, non-cognate 0); higher = stronger binding
Settings: with NBS DNA site
Procedure, shortened: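 Fitness is the rescaled log change in variant-to-wild-type read ratio, measured by Illumina sequencing of plasmids before and after bacterial one-hybrid selection. The scale puts cognate at 1 and non-cognate at 0. Selection of Caulobacter ParB libraries, four specificity codons randomised, took place in E. coli USO with a HIS3 reporter, site 19 bp from the promoter, over 48 hours at 37°C on M9-minus-histidine with 0.1 mM IPTG and 5 mM 3-AT.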

Variant	one-hybrid fitness for binding NBS DNA
GGYG	≤ 0.2
TWNC	≤ 0.2
QLYE	≤ 0.2
WHGR	≤ 0.2
SSSG	≤ 0.2
QLEY	≤ 0.2
TLTS	≤ 0.2
FTNC	≤ 0.2
SSHP	≤ 0.2
SGAV	≤ 0.2
AITP	≤ 0.2
DPVA	≤ 0.2
ARHE	≤ 0.2
TTIC	≤ 0.2
PTYF	≤ 0.2
KRVA	≤ 0.2
YRIR	≤ 0.2
TTMW	≤ 0.2
HIAA	≤ 0.2
SLHE	≤ 0.2
NAYM	≤ 0.2
TRGM	≤ 0.2
AARN	≤ 0.2
LYNG	≤ 0.2
DNSG	≤ 0.2

Variant	one-hybrid fitness for binding NBS DNA
INAI	≤ 0.2
APHF	≤ 0.2
KFYG	≤ 0.2
ETPC	≤ 0.2
LVNY	≤ 0.2
PVGF	≤ 0.2
SHSK	≤ 0.2
HKFY	≤ 0.2
IMKL	≤ 0.2
NSSS	≤ 0.2
MMLR	≤ 0.2
LLIA	≤ 0.2
PGFY	≤ 0.2
PKSF	≤ 0.2
RWGW	≤ 0.2
WNDR	≤ 0.2
PTPY	≤ 0.2
WVTV	≤ 0.2
RKKP	≤ 0.2
STDI	≤ 0.2
FFAM	≤ 0.2
TKMF	≤ 0.2
PIKT	≤ 0.2
IPSW	≤ 0.2
QRRK	0.747

Variant	one-hybrid fitness for binding NBS DNA
HFDG	≤ 0.2
LRYK	≤ 0.2
LDAG	≤ 0.2
GGWY	≤ 0.2
RALP	≤ 0.2
QCAS	0.451
PTYN	≤ 0.2
RWTL	≤ 0.2
LGQC	≤ 0.2
DCHR	≤ 0.2
YHTN	≤ 0.2
TTNW	≤ 0.2
TRDV	≤ 0.2
WTCG	≤ 0.2
MRTW	≤ 0.2
RDLV	≤ 0.2
WPCP	≤ 0.2
FATL	≤ 0.2
SKNY	≤ 0.2
RHME	≤ 0.2
GPRQ	≤ 0.2
QCDF	≤ 0.2
LGAM	≤ 0.2
KRSK	≤ 0.2
CRVW	≤ 0.2

Variant	one-hybrid fitness for binding NBS DNA
RCRT	0.706
HPDS	≤ 0.2
RLAK	≤ 0.2
RINT	0.554
VYVE	≤ 0.2
QETN	≤ 0.2
MERY	≤ 0.2
SANS	≤ 0.2
KCLA	≤ 0.2
QCLV	≤ 0.2
SCIV	≤ 0.2
MHSH	≤ 0.2
RTFP	≤ 0.2
RIAE	≤ 0.2
VENP	≤ 0.2
TAAE	≤ 0.2
PRAE	≤ 0.2
EQLV	≤ 0.2
WNLG	≤ 0.2
RDYL	≤ 0.2
PYDK	≤ 0.2
SHPD	≤ 0.2
QYQF	≤ 0.2
LADM	≤ 0.2
DWWR	≤ 0.2

Variant	one-hybrid fitness for binding NBS DNA
TLHS	≤ 0.2
QASG	≤ 0.2
QNNC	≤ 0.2
QDPG	≤ 0.2
QPQI	≤ 0.2
QNCV	≤ 0.2
SALM	≤ 0.2
CQLL	≤ 0.2
AEMR	≤ 0.2
RYCK	≤ 0.2
YETT	≤ 0.2
QRVF	≤ 0.2
RAYM	≤ 0.2
RTSF	≤ 0.2
QPHS	≤ 0.2
VGDK	≤ 0.2
HHMT	≤ 0.2
RRAR	0.757
HMRV	≤ 0.2
TSTD	≤ 0.2
MWSW	≤ 0.2
CTWS	≤ 0.2
SIKS	≤ 0.2
PTGC	≤ 0.2
YIAG	≤ 0.2

Variant	one-hybrid fitness for binding NBS DNA
VPAF	≤ 0.2
APGV	≤ 0.2
NKPV	≤ 0.2
LDRA	≤ 0.2
RSQK	≤ 0.2
TRAC	≤ 0.2
RQPK	≤ 0.2
FTLC	≤ 0.2
MTVD	≤ 0.2
SKTK	≤ 0.2
PDEW	≤ 0.2
VWNK	≤ 0.2
YHKG	≤ 0.2
KKAA	≤ 0.2
HRNI	≤ 0.2
GNHG	≤ 0.2
ADKN	≤ 0.2
IALR	≤ 0.2
GKYN	≤ 0.2
WVCS	≤ 0.2
MAHM	≤ 0.2
SIVC	≤ 0.2
SVTA	≤ 0.2
EILC	≤ 0.2
QAFV	≤ 0.2

Variant	one-hybrid fitness for binding NBS DNA
TKNV	≤ 0.2
YPPV	≤ 0.2
RLMK	≤ 0.2
QCVN	≤ 0.2
QHRD	0.234
DHKE	≤ 0.2
QRKM	0.557
QQTP	≤ 0.2
SACN	≤ 0.2
RMFL	≤ 0.2
WSLK	≤ 0.2
EWMS	≤ 0.2
LNAG	≤ 0.2
RTET	0.234
RCTE	≤ 0.2
AYIK	≤ 0.2
RGMT	≤ 0.2
LTVS	≤ 0.2
KDRT	≤ 0.2
CSDF	≤ 0.2
YDHY	≤ 0.2
ACMT	≤ 0.2
RCWG	≤ 0.2
TSLF	≤ 0.2
FLPR	≤ 0.2

Variant	one-hybrid fitness for binding NBS DNA
ACNL	≤ 0.2
QGGN	≤ 0.2
NHLM	≤ 0.2
PGNL	≤ 0.2
FKTV	≤ 0.2
CPQR	≤ 0.2
SRRC	≤ 0.2
GTMN	≤ 0.2
KKLS	≤ 0.2
KTYP	≤ 0.2
LKHS	≤ 0.2
LNPG	≤ 0.2
APNI	≤ 0.2
TCPG	≤ 0.2
PGKW	≤ 0.2
VLYE	≤ 0.2
SLYS	≤ 0.2
APPF	≤ 0.2
VKLR	≤ 0.2
RMQT	0.371
